# ± gives the standard deviation of the averaged measurements. The list shows a part of the results.
# System: PfAP2-G AP2 domain (GST-tagged)
# Assay: gcPBM binding intensity (ln(normalized median fluorescence intensity)); higher = stronger DNA binding
# Procedure, shortened: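 GST-tagged P. falciparum DNA-binding domains produced in E. coli were incubated for 1 h on an Agilent 4 × 180k array of primer-extended double-stranded 36-bp intergenic genomic probes with negative controls. Binding intensity is the highest Masliner-normalised natural-log median intensity across replicate spots of either probe orientation, with bound protein detected by Alexa488 anti-GST antibody at 488 nm.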
row,Sequence,gcPBM binding intensity (ln)
1,ATGAGTAACATATTTGTGCACATATGGTTATTTTTA [GTGCAC_site9541],10.3 ± 0.12
2,ATAAAAAACAGTGGCACACATTATGTATCCACCTTT [CACACA_site5958],10.5 ± 0.18
3,CATTTATTATGATAAAGTACTTAAATTAATAGATAA [XGTACX_site3566],11.3 ± 0.78
4,ATGCATATAATTATATGTACATATAAGAAATATATA [XGTACX_site517],11.1 ± 0.59
5,CATAATATGTGGACTTTACACACTTGTTTTAAAATT [CACACA_site819],10.9 ± 0.54
6,TCTTTTTTTTTTTTTTTTTCTTCTTCTCAATATAAA [GTGCAC_negctrl_site303],9.79 ± 0.29
7,TATGCACACAATATATGTACTTATATATTTTAAAAA [XGTACX_site5482],11.2 ± 0.79
8,TTTTATAAAAAAACTATAAAAATATATAGTACTTAA [CACACA_negctrl_site440],10.9 ± 0.75
9,TAGTGTATGATAATATGTACATACATTTATATAATA [XGTACX_site6330],11.2 ± 0.67
10,AGGACACATATATGCAAAAAAAAAAAAAAAAAAAAA [TGCATGCA_negctrl_site427],9.75 ± 0.51
11,TTCCGAACGACCTAAAGTACATGTATTTCAACTTTT [XGTACX_site1220],11.1 ± 0.57
12,CATATAAAGATATGAACACACAAAAAGAATATTTCC [CACACA_site6811],10.26 ± 0.042
13,AATAATAAAAAATACACACACATATAAATATATTAC [CACACA_site7597],9.875 ± 0.092
14,TTATATTCTAGAGACACATGCGATTTTTTATTTTAT [TGCATGCA_site649],9.94 ± 0.17
15,TGGAATAATCCGCGTACACACATATATATATTAAGA [CACACA_site4253],11.6 ± 0.87
16,GTTACTATGATTAATGCATGCAAATACCAAAAAAAA [TGCATGCA_site590],10.2 ± 0.2
17,TATACCACACGATATACACACTTGTAGACATCTTTT [CACACA_site6232],10.07 ± 0.028
18,AATAAAAATAGGAATACGCACACGATGATTAATTTA [CACACA_site1836],10.1
19,AATTAACCCTAATTTTGTACATATTCCTTTTCTCAT [XGTACX_site46],10.8 ± 0.14
20,AATTAAAATTTTTGAAGTACACTCAAAATAAGTTAT [XGTACX_site4490],11.5 ± 0.95
21,TCCCTTCATCTTTTATGTACTAAAAAATTGAATAAT [XGTACX_site2172],11.1 ± 0.78
22,TAATACGAATGAGGCACACACCTAGTATACATGCTT [CACACA_site6438],10.005 ± 0.007

row,Sequence,gcPBM binding intensity (ln)
1,AAAAAAAAATTTAAGGGTACATACAAATATATATAT [XGTACX_site5078],11.2 ± 1.1
2,AAAATAAAAAAAAACACACACATACAAGCATATATA [CACACA_site1585],9.91 ± 0.12
3,AATTAATGGCTAAAGGTGCACAATATATATATTACA,10.6 ± 0.55
4,TTTTTTTTTTTGAAATGTACATTCCAAAAACTGATA [XGTACX_site1495],10.7 ± 0.51
5,TATATATATATATATTTTTTTTTTTTATGCACATGG [CACACA_negctrl_site1573],9.93 ± 0.41
6,TAATACCTATGGTATAGTACGTATTATTTTATAGAG [XGTACX_site2078],11.2 ± 0.68
7,CTTTTGAACAGTTCATGTACTCAATTTTTTAATAGT [XGTACX_site6498],11.4 ± 0.94
8,ATGATTTCATTTGAGAGTACGTAAAAATAATACGTA [XGTACX_site4958],11.3 ± 0.91
9,TATTTTTATTGGTACTGTACCTATTTAGAAATACAT [XGTACX_site6663],11.5 ± 0.81
10,TATTTATAAAAAAATACATGCATTTTTTTTTTTTTT [TGCATGCA_site65],9.825 ± 0.064
11,TGTTAATTCTTAAGAATTTCCATAATTTCTTCTTTT [CACACA_negctrl_site1065],9.66 ± 0.042
12,TTTGCCATATGACACACACACATGTAAACCCCCTTT [CACACA_site6873],10.7 ± 0.55
13,TAATACAAAAACAATGTTCTTTCAAACATAAACATA [CACACA_negctrl_site1628],9.77 ± 0.17
14,ACATTCTATATATACACACATACATAATAAAGAAAG [CACACA_site2771],10.1 ± 0.13
15,AAATAATAAAACAACACACAAATAGTTAAAATAGAA [CACACA_site5007],9.91 ± 0.15
16,ATATAATGATGGAAAAGAAAAGAAATAAAAAAAAAA [CACACA_negctrl_site1170],9.61 ± 0.17
17,TTTTAATGATATATGAGTACACATTGTTTTTTATAA [XGTACX_site1072],11.6 ± 1
18,AATAAAAAAAAACTCATGCACACAATATTATGAAAA [CACACA_site664],9.975 ± 0.007
19,AGAGAAAGAAGGGAGAAAAAATAAAATAAAATAAAA [GTGCAC_negctrl_site299],9.63 ± 0.2
20,AAAAATTACAAATACAAACACACAAATGTTTTTCAT [CACACA_site3551],9.71 ± 0.13
21,AATAAAATAAATATATGTACATATATATAACCATTA [XGTACX_site5549],11.1 ± 0.54
22,CATATATAGATATATACACACATACATACATACATA [CACACA_site7748],10 ± 0.13

row,Sequence,gcPBM binding intensity (ln)
1,TGCATATGCATTATTTGTACATATGTAGATAATTAT [XGTACX_site6930],10.8 ± 0.47
2,AATACATGAATATGTAGTACAGAAAAAAAAAATATA [XGTACX_site1945],11.7 ± 0.95
3,AAAATGACATAATGGGGAATAGACATATACATAAAT [CACACA_negctrl_site1669],9.91 ± 0.099
4,GTTACAGAGAATGTTGTGCACATATCAATAATATAT [GTGCAC_site9671],10.5 ± 0.28
5,CCACATTAAAAAAAAACACACATATATTATATATAT [CACACA_site1155],9.76 ± 0.11
6,AATTAATTAAATTAATGTACACATATATTTGTATTC [XGTACX_site2341],11.3 ± 0.79
7,TATATATATATATATATTTTAAATGATATAAATGGT [TGCATGCA_negctrl_site152],10.2 ± 0.53
8,TAGAAAGAATATAATTGTACAAATGTTGATAGATAA [XGTACX_site7259],10.7 ± 0.18
9,ATATATATATATATATATATATATGTTTGATTTTTT [XGTACX_negctrl_site98],9.88 ± 0.64
10,ATTTTTCTTTTATTAACACACATATAAATAAATACA [CACACA_site2876],10.1 ± 0.2
11,AAATGGTAAGAAAATAAATAAAGTTCTACCACATAA [CACACA_negctrl_site1542],10.05 ± 0.042
12,TTTTGCTTTTTTTTTCTTTTTTGTTTTATATATATT [CACACA_negctrl_site103],9.64 ± 0.071
13,ACATATGGTATTTAAACACACAAAAAAGAAAGAAAA [CACACA_site991],10.1 ± 0.21
14,TATAAACCATAATTAACACACAAAATAAGTTACATA [CACACA_site3227],9.995 ± 0.049
15,ATAATAATAAAAATTATACATAAGTATATGCACATA [XGTACX_negctrl_site583],9.8 ± 0.014
16,CACAAATAAATACATACACACATATATACTCATATA [CACACA_site4379],10.03 ± 0.064
17,TTATAAAGAACACAGACACACAAAGAAAGAACCAAT [CACACA_site4175],10.4 ± 0.37
18,TTTTGTCAATTTTAGATTTTTCAATACATGGATATT [CACACA_negctrl_site319],9.76 ± 0.014
19,ATATATATATATTTATGTACGAATATGTTTAATTTA [XGTACX_site3986],10.7 ± 0.57
20,ATATATATAATAATATGTACGGAAAAAGCTTAAGCT [XGTACX_site5661],11.1 ± 0.67
21,AAATATATATATTTACGTACATATATACAAATAGAG [XGTACX_site6067],11.4 ± 0.81
22,TGGGCGTCATAATGAACACACAATTATATTATGACT [CACACA_site3910],9.965 ± 0.078

row,Sequence,gcPBM binding intensity (ln)
1,TTACACAAATAGCTGCATTTATAAAATACAATTAAA [CACACA_negctrl_site241],9.72 ± 0.13
2,TTTCCTTCTACAAAAAATTTTATCAAGAGGAAGTAC [CACACA_negctrl_site926],10.7 ± 0.38
3,AAAAATAAAGAAACAGGTACGCATATATTAAGATAT [XGTACX_site8097],11.1 ± 0.58
4,AATATATTCCACATGTGTACATATATATATATATAT [XGTACX_site8006],11.4 ± 0.86
5,ATATGCAAAGAGTATAATCAAAATGTAAATAAATAA [GTGCAC_negctrl_site141],9.925 ± 0.007
6,AATATTATTTATATTTGTACACAGTAATATAAAATA [XGTACX_site4884],11.1 ± 0.68
7,CCATAGATATTTTATACACACATATAATATATTAAG [CACACA_site4363],10.1 ± 0.17
8,TGTCACTACAAATGAGTGCATTAAATAATTTGGAAA,10.08 ± 0.042
9,TTCTAACTCTAACAAGTGCAATATATATACATAATA,10.1 ± 0.18
10,AAATTTGGCAAACACACACACACACCCACACCCACA [CACACA_site8095],10.4 ± 0.36
11,AGTTTATTTGTAAAAAGTACATATTTAAGAAAACTT [XGTACX_site2318],11.2 ± 0.83
12,AATATATATCATCACACACACATACATAAATATATA [CACACA_site184],10.1 ± 0.21
13,TTTTTTTTTTGATGTTGTACATATATACTATATAAT [XGTACX_site1332],11.3 ± 0.7
14,TATATTATATATATGTGTACATATAAATGTAACAAA [XGTACX_site5025],11.3 ± 0.76
15,AATACATATAAAAGTACACACACACCCATATATATA [CACACA_site8220],11.6 ± 0.97
16,ATAGAATACATATATGAACACACAGAGTTTTAAAAA [CACACA_site8879],10.15 ± 0.042
17,TAAATATCTAAAGACTGTACAATTAAATATAAACAT [XGTACX_site1450],11 ± 0.7
18,TTTTGTAACCTATGCACGCACACAAGAAAAAAACAA [CACACA_site3776],10.7 ± 0.59
19,GAAAATAAAAAAAATAAAAAAAATAAAAAAAATTAT [XGTACX_negctrl_site443],9.43 ± 0.11
20,ATACCATAAATATTGTGTACATAAATATGTTAGTAA [XGTACX_site6077],11.6 ± 1.1
21,TTTTAGAAATTTACTAAACTTTATATAACTATTGAA [TGCATGCA_negctrl_site280],9.68 ± 0.014
22,CATGTTTATGCCGTTTGTACATATATATCTAAAAAA [XGTACX_site4336],10.9 ± 0.6

# — the supplement of paper PMC11417369
